Test results: PubChem BioAssay AID1508624 (National Center for Advancing Translational Sciences (NCATS), 2021)
Out of some 48,000 compounds screened, about 120 (0.25%) were called active. Another 4% or so got no clear call; they are omitted. Calls follow the shape of the dose curve; as a rule, active = well fitted activation curve with a large enough effect; inconclusive = small, poorly fitted or top-dose-only effect, or another doubt; inactive = no such curve, though single readings can be large or run the other way. The list shows a part of the results.

Assay: Primary qHTS for Identification of Small Molecule Activators of Huntingtin-Antisense Promoter Activity; also: nearly all actives have a fitted effect of over 55% in size
Details: HEK293 HTT-AS promoter firefly luciferase reporter (activity 0% = vehicle and -100% = no light), 24 h; series mostly up to 57.5 µM; activity change, positive = activation: at the top concentration
Method in brief: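 Quantitative HTS used concentration series of up to 57.5 uM final on HEK293 luciferase reporter cells, 24 h at 37 degrees C. Readout was Dual-Glo firefly luminescence.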

Row | Structure (SMILES) | activity change, positive = activation
1 | O=C(Cc1ccc(Cl)cc1)NCCc1csc2nc(-c3ccccc3F)nn12 | inactive: -14.5%
2 | CCC(C)(C)NC(=O)C(NS(=O)(=O)c1cccs1)c1ccccc1 (configuration not stated) | inactive: -17.7%
3 | Cc1cc(F)ccc1Nc1nc2ccc(Cl)cc2n2cnnc12 | inactive: -4.06%
4 | CCOC(=O)c1ccc(-n2c(CCC(=O)O)ccc2-c2ccccc2)cc1O | inactive: -3.74%
5 | O=C(O)Cc1ccc2c(c1)C(=O)c1ccccc1CO2 | inactive: 25.4%
6 | CCc1ccc(-c2nc3cc(NC(=O)c4ccc(C)c(C)c4)ccc3o2)cc1 | inactive: -6.5%
7 | Cc1c(NC(=O)c2cccs2)cccc1-c1nc2cc(Cl)ccc2o1 | inactive: -9.78%
8 | COc1ccc(S(=O)(=O)n2nc(-c3ccco3)nc2NCc2ccc(C(C)C)cc2)cc1 | inactive: -3.26%
9 | CCOc1ccc(NC(=O)c2nc(S(=O)(=O)Cc3ccccc3F)ncc2Cl)cc1 | inactive: -96.1%
10 | Clc1cccc(-c2nnnn2Cc2cccnc2)c1Cl | inactive: -10.5%
11 | O=C(NCCCN1CCN(c2ccccc2F)CC1)c1ccc2nc(CCc3ccccc3)oc2c1 | inactive: -19.7%
12 | CCOc1ccc(C(=O)Nc2ccc(OCc3cc(=O)n4cccc(C)c4n3)cc2)cc1 | inactive: -14.8%
13 | CCc1nnc2c3ccccc3nc(Nc3cc(C)cc(C)c3)n12 | inactive: -19.4%
14 | COc1ccc(S(=O)(=O)NCc2cccn2Cc2cc(C)ccc2C)cc1OC | inactive: -11.9%
15 | Cc1nc2ccccc2n1Cc1ccc(Cl)cc1 | inactive: -76.9%
16 | CC(=O)NCCNC(=O)CCCc1nnc2n(CC(C)C)c(=O)c3sccc3n12 | inactive: -16.4%
17 | COc1ccc(-c2cc(-c3nc(-c4cc(OC)c(OC)c(OC)c4)no3)[nH]n2)c(OC)c1 | inactive: -21.5%
18 | COc1cccc(NC(=O)Cn2c(=O)n(Cc3ccc(F)cc3)c(=O)c3sc4ccccc4c32)c1 | inactive: -15.7%
19 | OCCCNc1cc(-c2ccnc(Nc3cccc(Cl)c3)n2)ccn1 | inactive: -17.7%
20 | COc1ccc(CNC(=O)CCc2c(C)nc3cc(-c4ccc(OC)cc4OC)nn3c2C)cc1 | inactive: -36.8%
21 | Cc1cccc(NC(=O)Cn2c(=O)n(CC3CCC(C(=O)NCCc4ccccc4)CC3)c(=O)c3ccccc32)c1 (configuration not stated) | inactive: -12.9%
22 | Fc1ccc(Nc2nc(-c3cccc(Cl)c3)c3c(n2)-c2ccccc2OC3)c(F)c1 | inactive: -18.4%
23 | Fc1ccc(-c2cc(-c3ccc(F)cc3)c3c(n2)-c2cc(F)ccc2OC3)cc1 | inactive: -16.9%
24 | CC(C)=CCNc1ncnc2c1ncn2[C@@H]1O[C@H](CO)[C@@H](O)[C@H]1O | inactive: -43.6%
25 | CCOc1ccc2nc(N3CCCC(C(=O)Nc4ccccc4CC)C3)sc2c1 (configuration not stated) | inactive: 27.1%
26 | CCc1ccc(NC(=O)CSc2nc(-c3ccc(C)cc3)nc3c2Cc2c(CO)cnc(C)c2O3)cc1 | inactive: -18.2%
27 | CCOC(=O)c1cc(-c2ccc(F)cc2)n(CCC(=O)NC2CCC(C)CC2)c1C (configuration not stated) | inactive: -34.2%
